Measured values reported in the supplement of paper PMC10126150.
Values marked as one replicate rest on one cluster of the flow cell; about a third of the high ones do not repeat.

System: ATP
Assay: switch fluorescence ratio, 500 uM ATP over buffer (Cy3 cluster intensity, sum of 5 cycles each) (fold (ratio)); higher = stronger signal-on switching upon ATP binding; sequences stand for … in TCGTCGGCAGCGTCAGATGTGTATAAGAGACAGTTTTTTTTTTTTTTTTTTTTTTTTT…TC
Settings: aptamer strand: ATP DNA aptamer (quencher-CACCTGGGGGAGTATTGCGGAGGAAGG + anchor), 100 nM annealed; ATP concentration: 500 uM; one replicate
Procedure, shortened: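 Cy3-labelled switching-strand clusters on a modified Illumina MiSeq flow-cell were annealed to 100 nM quencher-labelled ATP aptamer and imaged first in selection buffer, then after 15 min with 500 uM ATP at 22 °C. NaOH stripping and re-annealing separated each of five buffer/ATP cycles, and clusters outside 100-1000 RFU were excluded. The fluorescence ratio sums target-cycle Cy3 intensity over buffer-cycle Cy3 intensity per cluster and averages it per switch-domain sequence.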
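Further: ATP exposure 15 min at 22 °C before imaging.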

Row | Sequence | switch fluorescence ratio
1 | TTGAAACGTG | 0.947
2 | GGGTTCGGGC | 0.989
3 | GTACTATATT | 1.11
4 | GAATGTGCTG | 1.03
5 | TAACGCCCGT | 0.994
6 | AAAATGAGCA | 1.05
7 | GCTATTGGG | 1.03
8 | ATGTTGTCGC | 1
9 | AGATCTGTGG | 1.01
10 | TCAGTAAGG | 0.991
11 | CTGGTATAAA | 0.986
12 | ACCCGGTATT | 0.982
13 | CTTTAACCGG | 1.07
14 | ACCGCATCTG | 1.19
15 | AAGAGATTT | 1.05
16 | CGCTTATTAT | 1.04
17 | GTCGAGAAAT | 1.02
18 | ATTGTCAGAA | 0.976
19 | AATATCCATG | 0.954
20 | ATCTACTCCA | 1.11
21 | GATCGCCGTC | 0.989
22 | GATTCAAGGT | 0.986
23 | ATTATACAC | 1.02

Row | Sequence | switch fluorescence ratio
24 | CTGTGTGCAA | 2.71
25 | CGAGATTCGG | 1.05
26 | TCCTGCCACA | 1.42
27 | CATTTATTCA | 0.979
28 | TCCCCTGAGT | 1.12
29 | AGCGCTATAT | 1.04
30 | TCTCGGATTG | 0.993
31 | AGGGAGCCCA | 0.983
32 | CGGTCAATGT | 1.02
33 | GAAAGCTGCT | 0.977
34 | TGACAGTTAG | 1.29
35 | CACTTATTTT | 1.02
36 | AGGCGAGGGC | 1.04
37 | GCATGCCGAG | 0.969
38 | AGGTTACTAA | 1.02
39 | TCGGCAAGGT | 1.23
40 | TTTTTGCCCA | 1.02
41 | CCTAATGGGG | 1.05
42 | GACACTGTGT | 1.01
43 | AGCAATTGGA | 1.17
44 | ACGGGCCTTT | 0.968
45 | GCGCGTTAGA | 1.01
46 | CAGGATTCAT | 0.949

Row | Sequence | switch fluorescence ratio
47 | CCCAGTTAGC | 1.08
48 | CAGGGCCGGC | 1.02
49 | CAATCGTTAT | 0.947
50 | TCGCGGCATA | 0.987
51 | TAACATCGAG | 0.971
52 | GCACCCGTGC | 1.02
53 | GAAATTCTGT | 0.979
54 | CCTCCGGTTC | 1.7
55 | AGCGTCCTCG | 1.02
56 | ACCAGGTACC | 0.975
57 | ATGCGACACG | 1.01
58 | TCAGTCCATT | 0.96
59 | TCTGTGCGAT | 1.5
60 | GATTCTCCCA | 0.986
61 | GCTCTGTGTG | 1.02
62 | TCCACGTTGA | 1.06
63 | CTTTTCCTGG | 0.994
64 | TTGCATGACT | 1.05
65 | TCGTTGAGAT | 1.04
66 | TTGGGTTGTA | 1
67 | CGTACAAGAT | 1.1
68 | ACATTCTTTG | 0.996
69 | GATCCTTCCG | 2.35

Row | Sequence | switch fluorescence ratio
70 | AGAATCGGTA | 1.03
71 | GACATACCGG | 1.18
72 | GCAAGAGCCG | 0.937
73 | GTCGGGAAGA | 1.03
74 | GTCGGGAAAC | 0.994
75 | TAAATCCGGC | 0.968
76 | TGAGTGGTGG | 1.01
77 | AGAGGGGATA | 0.968
78 | TGCGATAGTG | 1.01
79 | TTAGATGCCT | 1.11
80 | ACTACACCGG | 1.9
81 | TTCCTCCGGA | 1.16
82 | AATGTGAGTG | 1.04
83 | GTCGATGATG | 0.971
84 | GACTCGCGAT | 1.63
85 | AAATCTACTT | 1.03
86 | CCACCGGGCA | 1.43
87 | AGCGAGATGT | 0.978
88 | ATGACTAAGG | 0.98
89 | ATGGGAACT | 0.985
90 | AACCCGCAAA | 4.8
91 | CATAGGAGGA | 1.01
92 | TTTCAGTTAC | 1.05

Row | Sequence | switch fluorescence ratio
93 | AAAGCCTAAG | 0.976
94 | GGCTCTCTTG | 0.979
95 | TCTTGATAAT | 0.99
96 | CATGCTGCCT | 0.984
97 | GAGGTACGGC | 1.07
98 | TTCTCCAC | 1.18
99 | GTGAGGG | 0.98
100 | GTGGGAAGG | 1.03
101 | TGGTTTCAAC | 1.07
102 | CTAGGACGCC | 1.02
103 | CGTCTTCACC | 1
104 | TCTGCGCTTA | 1.47
105 | CAGAAATTGA | 1
106 | GCGTGCAAAG | 1
107 | TGAGGGCAG | 1
108 | GACGTAATC | 3.95
109 | GGTCTCTACT | 1
110 | TGATGCTAGA | 1.01
111 | AGGTAAAGG | 1.01
112 | ACTTGTTTTG | 1.01
113 | ACCTTAGCAG | 1.02
114 | AGTTGGCGTA | 0.939
115 | AGTATGTATT | 0.986

Row | Sequence | switch fluorescence ratio
116 | TAAGAACCA | 1.08
117 | GGGCTTCATG | 1.07
118 | ATGGAGTTAG | 0.949
119 | AAAGACATTT | 1.03
120 | TGGCGAGGAA | 1.05
121 | TCATAGATGC | 1.02
122 | GACGGGGAGC | 1.08
123 | CTGATGGTGT | 1.07
124 | CGCCAAGTGC | 1.39
125 | TCACGTCTAA | 0.999
126 | TAGAAACTCG | 1.04
127 | CCTAGAGTGC | 1.02
128 | TAACAGACGC | 1.3
129 | ATGTTGGATT | 0.959
130 | AGCGTACGAT | 1.04
131 | GTCATGGCCG | 1.02
132 | TATGTGCGTG | 0.979
133 | AACGGTCTCT | 0.994
134 | TAATTATGGT | 1.02
135 | TTTCTTTCAC | 1.01
136 | CGTACGGGTC | 1.04
137 | GCTGTCCTTT | 0.948
138 | GGCTCAGTAG | 1.01

Row | Sequence | switch fluorescence ratio
139 | GGTGGGTCCG | 0.981
140 | TGAAAACAGC | 0.97
141 | CAGTCCAGTT | 1.02
142 | TGCTTTTGTT | 0.947
143 | ATGAATCCAT | 0.938
144 | TATTTGTTGT | 0.967
145 | ATCGTTTGGT | 0.974
146 | CCTGATCTTC | 0.954
147 | TTGCATCCGG | 0.964
148 | GCTGGTACAA | 1.03
149 | TTCAGTGTAA | 1
150 | TTATGGCT | 0.993
151 | TAAGAGGTTC | 0.985
152 | ATTAACGATC | 1.02
153 | GAAACCCAGG | 3.54
154 | TTCCTCACTT | 1.13
155 | ACTCGTGATG | 0.989
156 | CCATGGCAGC | 1.23
157 | TTGATTTCAC | 1.01
